Read counts are not given, so values of variants with three or more changes are uncertain.
B1: CPEB3 Ribozyme (parent)
chain: UAACAGGGGGCCACAGCAGAAGCGUUCACGUCGCAGCCCCUGUCAGAUUCUGGUGAAUCUGCGAAUUCUGCUGUAUAUCUC

Variants of: B1
Assay: self-cleavage, relative activity (ratio to wild type); higher = more cleavage; in vitro, sequencing
How it was run: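 For each CPEB3 ribozyme variant, relative activity is its cleaved/total read fraction divided by the unmutated ribozyme's. Barcoded error-prone PCR libraries were transcribed by T7 RNA polymerase (5 hours, 37°C) and held in DNase I for 15 min before an EDTA stop, with cleavage occurring throughout. Template-switching reverse transcription and Illumina sequencing were used to read the RNAs. A 5-read minimum applied, and results are the mean of three batches.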
UAACGGGGGGCCACAGCAGAGGCGUCCACGUCGCAGCCCCUGUCAGACUCUGGUGAAUCUGCGAAUUCUGCUGUAUAUCUC gave a self-cleavage of 0.05.
Work on UAACGGGGGGCCACAGCAGAAGCGUUCGCGUCGCAGCCCCUGUCAGGUUCUGGUGGAUCUGCGAAUUCUGCUGUAUAUCUC yielded a self-cleavage of 0.33.
In the case of UAACGGGGGGCCACAGCAGGAGCGUUCACGUCGCAGCCCCUGUCAGAUUCUGGUGAAUCUGCGAAUUCCGCUGUAUAUCUC, the self-cleavage is reported as 0.33.
Variant UAACGGGGGGCCACAGCAGUAGCGUUCACGUCGCAGCCCCUGUCAGAUUCUGGUGUAUCUGCGAAUUCUGCUGUAUACCUC has a self-cleavage of 0.2.
UAACGGGGGGCCACAGCAGAGGCGUUCACGUCGCAGCCCCAGUCAGAUUCUGGUGUAUCUGCGAAUUCUGCUGUAUAUCUC showed a self-cleavage of 0.37.
For UAACGGGGGGCCACAGCAGACGCGUUCACGCCGCAGCCCCUGUCAGAUUCUGGCGAAUCUGCGAAUUCUGCCGUAUAUCUC, the self-cleavage was 0.24.
With UAACGGGGGGCCACAGCAGUAGCGUUCAUGUCGCAGCCCCUGUCAGAUUCUGGUGAAUCUGCGAAUUCUGCAGUAUAUCUC the self-cleavage was 0.21.
Work on UAACGGGGGGCCACAGCAGAAGCGUUCGCGUCGCAGCCCCUGUCGGAUUCUGGUGAAUCUGCGAACUCUGCUGUAUAUCUC yielded a self-cleavage of 0.22.
UAACGGGGGGCCACAGCAGAAGCGUUCGCGUCGCAGCCCUCGUCAGAUUCUGGUGAAUCUGCGAAUUCCGCUGUAUAUAUC showed a self-cleavage of 0.09.
Variant UAACGGGGGGCCACAGCAGUAGAGUUCACGUCGCAGCCCCUGUCAGAUUCUGGUGAAACUGCGAAUUCUGCUGUAUAUCUC has a self-cleavage of 0.29.
UAACGGGGGGCCACAGCAGAGGCGGUCACGUCGCAUCCCCUGUCAGAUUCUGGUGAGUCUGCGAAUUCUGCUGUAUAUCUC gave a self-cleavage of 0.07.
Variant UAACGGGGGGCCACAGCAGUAGCGUUCACGUCGCAGCCCCUGUCAGAUUCUAGUGAAUCUGCGAAUUCUGCAGUAUAUCUC has a self-cleavage of 0.11.
Variant UAACGGGGGGCCACAGCAGUAGCGUUCACGUCGCGGCCCCUGUCAGAUUCUGGUGAAUCUGCGAAUGCUGCUGUAUAUCUC has a self-cleavage of 0.72.
UAACGGGGGGCCACAGCAGGAGCGUUCACGUCGCAGCCCCUGUCAGAUCCAGGUGAAUCUGCGAGCUCUGCAGUAUAUCUC showed a self-cleavage of 0.14.
UAACGGGGGGCCACAGCAGUAGCGUUCACGUCGCAGCCCCUGUCCGAUUCUGGUGAAUCUGCGGAUUCUGCUGUAUAUCUC showed a self-cleavage of 0.2.
Work on UAACGGGGGGCCACAGCAGAGGCGUUCACGUCGCAGCCCCUGUCAGAUUCUGGUGAAUCUGCGAAUUCCACUGUAUAUCUC yielded a self-cleavage of 0.18.
UAACGGGGGGCCACAGCAGAGGCGUACACGUCGCGGCUCCUGCCAGAUUCUGGUGAAUCUGCGAAUUCUGCUGUAUAUCUC gave a self-cleavage of 0.09.
For UAACGGGGGGCCACAGCAGAAGCGUUCGUGUCGCAGCCCCUGUCAGAUUCUGGUGAAUCGGCGAAUUCUGCUGUAUGUCUC, the self-cleavage was 0.09.
For UAACGGGGGGCCACAGCAGAGGCGCUCACAUCGCAGCCCUUGACAGAUUCUGGUGAAUCCGCGAAUUCUGCUGUAUAUCUC, the self-cleavage was 0.04.
Work on UAACGGGGGGCCACAGCAGAGGCGUUCACGUCGCAGCCCCUGUCAGAUUCUGGUGAAUCUGCGUAUUCUGCCGUAUAUCUC yielded a self-cleavage of 0.34.
In the case of UAACGGGGGGCCACAGCAGAGCCGUUCACGUCGCAGCCCCUGUCAGAUUCUGGUGAAUCUGCGAAUUCUGCUGUAUAUCUC, the self-cleavage is reported as 0.41.
Variant UAACGGGGGGCCACAGCAGGAGCGUUCACGUCGCAGCCCCCGACAGGUCCUGGUGAAUCUGCGAACUCUGCUGUAUAUCUC has a self-cleavage of 0.3.
With UAACGGGGGGCCACAGCAGAGGCGUCCACGUCGCAGCCCCUGUCAGAUUCUGGUGAAUCUGCGAAUUCUGCCGUAUAUCUC the self-cleavage was 0.15.
UAACGGGGGGCCACAGCAGUAGCGUUCACGUCGCAGCCCCCGUCAGAUUCUGGUGAAUCUGCGAAUUCCGCUGUAUAUCUC showed a self-cleavage of 0.
UAACGGGGGGCCACAGCAGUAGCGAACACGUCGCAGCCCCUGUCAGAUUCUGGUGAAUCUGCGAAUUCAGCUGUAUAUCUC showed a self-cleavage of 0.09.
With UAACGGGGGGCCACAGCAGGAGCGUUCACGUCGCAGCCCCUGUCAGAUUCUGGCGAAUCUGCGAAUUCUGCUGUAUAUCUC the self-cleavage was 0.58.
With UAACGGGGGGCCACAGCAGAAGCGUUCGCGUCGCAGCCCCUGUCAGAUUCUGAUGAGUCUGCGAAUUCUGCUGUAUAUCUC the self-cleavage was 0.15.
UAACGGGGGGCCACAGCAGAGGCGUUCACGUCGCAGCCCCUGUCGGAUUCUGGUGAAUCUGCGAAUUCUGCUGUAUAUCUC showed a self-cleavage of 0.26.
For UAACGGGGGGCCACAGCAGAUGCGUUCGCGCCGCAGCCCCUGUCAGAAUUUGGUGAAUCUGCGAAUUCUGCUGUAUAUCUC, the self-cleavage was 0.11.
Variant UAACGGGGGGCCACAGCAGAGGCGUCCACGUCGCAGCCCCUGUCAGUUUCUGGUGAAUCUGCGAAUUCUGCUGUAUAUCUC has a self-cleavage of 0.52.
In the case of UAACGGGGGGCCACAGCAGAUGCGUUCACGUCGCAGCCCCUGUCAGAUUCUGGUGAUUCUGCGAAUUCUGCUAUAUAUCUC, the self-cleavage is reported as 0.62.
In the case of UAACGGGGGGCCACAGCAGAAGCGUUCCCGUCGCAGCCCCUGUCAGAUUCUGGUGAAUCUGCGAAUUCUGCUGUAUAUCGC, the self-cleavage is reported as 0.32.
In the case of UAACGGGGGGCCACAGCAGAAGCGUUCGCGUCGCAGCCCCGGUCAGAUUCUGGUGAAUCUGCGAAUUCUGCUGUAUAUCAC, the self-cleavage is reported as 0.45.
UAACGGGGGGCCACAGCAGGAGCGUUCACGUCGCAGCCCCUGUCAGAUUCUGGUGAAUCUGCGAAUUCUGCUGUAUAGCUC gave a self-cleavage of 0.27.
In the case of UAACGGGGGGCCACAGCAGAGGCGUUCACGUCCCAGCCCCUGUAAGAUUCGGGUGAAUCUGCGAGUUCUGCUGUAUAUCUC, the self-cleavage is reported as 0.06.
UAACGGGGGGCCACAGCAGAAGCGUUCGCGUCGCAGCCCCCGUCAGAUUCUGGUGAAUCUGCGAGUUCUGCUGUAUAUCUC gave a self-cleavage of 0.45.
In the case of UAACGGGGGGCCACAGCAGGAGCGUUCACGUCGCAGCCCCUGUCAGAUUCUGGUGAAUCUGCGAACUCUGCUGUAUAUCUC, the self-cleavage is reported as 0.35.
With UAACGGGGGGCCACAGCAGUAGCGUUCACGUCGCAACCCCUGUCAGAUUCUGGUGAAUCUGCGAAUUCUGCUGCAUAUCUC the self-cleavage was 0.1.
UAACGGGGGGCCACAGCAGAAGCGUUCGCGUCGCAGCCCCUGUCAGAUUCUGGUGGAACUGCGAGCUCUGCUGUAUACCUC gave a self-cleavage of 0.
Variant UAACGGGGGGCCACAGCAGAGGCGUACACGUCGCAGCCCCUGUCAGAUUCCGGUGAAUCUGCGUUUUCUGCUGUAUAUCUC has a self-cleavage of 0.19.
Variant UAACGGGGGGCCACAGCAGAAGCGUUCGCGUCUCAGCCCCUGUCAGAUUCUGGUGAAUCUGCGAAUUCUGCCGUAUAUCUC has a self-cleavage of 0.22.
UAACGGGGGGCCACAGCAGAUGCACUCACGUCGCAGCCCCUGUCAGAUUCUGGUGAAUCUGCGAAUUCUGCUGUAUAUCUC gave a self-cleavage of 0.41.
Variant UAACGGGGGGCCACAGCAGUAGCGUUCACGUCGCAGCCCCUGUCAGAUUCUGGUGAAUCUGCGAAUUCUGCUGUACAUCUC has a self-cleavage of 0.39.
UAACGGGGGGCCACAGCAGAUGCGUCCACGUCGCAGGCCCUGUCAGAUUCCGGUGAAUCUGCGAAUUCUGCUGUAUAUCUC gave a self-cleavage of 0.07.
Work on UAACGGGGGGCCACAGCAGAGGCGUUCACGUCGCAGCCCCUGUCAGACUCUGGUGAAUCUGCGAAUCCUGCUGUAUAUCUC yielded a self-cleavage of 0.22.
Variant UAACGGGGGGCCACAGCAGUAGCGUUCACGUCGCAGCCCCUGUCAGAUUCCGGUGAAUCUGCGAAUUCUGCGGUAUAUCUC has a self-cleavage of 0.1.
Variant UAACGGGGGGCCACAGCAGGAGCGUUCACGUCGCAGCCCCUGUCAGAGUCUGGUGAAUCUGCGAAUUCUGCUGUAUAUCUC has a self-cleavage of 0.27.
Work on UAACGGGGGGCCACAGCAGAAGCGUUCGCAUCGCAGCACCUGUCAGUUUCUGGUGAAUCUGCGAUUUCUGCUGUAUAUCUC yielded a self-cleavage of 0.11.
In the case of UAACGGGGGGCCACAGCAGGAGCGUUCACGUCGCAGCCCCAGUCAGAUCCUGGUGAGUCUGCGUAUUCUGCUGUAUAUCUC, the self-cleavage is reported as 0.06.
With UAACGGGGGGCCACAGCAGAGGCGUUCACGUCGCAGCCCCUGUCAGAUUCUGGUGAAUCUGCGAAUCCUGCUGUAUAUCUC the self-cleavage was 0.13.
UAACGGGGGGCCACAGCAGAAGCGUUCGCGUCGCUGCCCCUGUCAGAUUCUGGUGAAUCCGCGAAUUCUGCUGUAUAUCUC gave a self-cleavage of 0.26.
UAACGGGGGGCCACAGCAGAUGCACUCACGUCGCAGCCCCUGUCAGAUUCUGGUGAAUCUGCGAAUUCUGCCGUAUAUCUC showed a self-cleavage of 0.09.
For UAACGGGGGGCCACAGCAGAGGCGUUCACGUCGCAGCCCCUGUCAGAUUCAGGUGAAUCCGCGAAUUCUGCUGUAUAUCUC, the self-cleavage was 0.09.
With UAACGGGGGGCCACAGCAGAAGCGUUCGCGACGCAGCCCCUGUCAGAUUCUGGUGAAUCUGCGAAUUCUGAUGCAUAUCUC the self-cleavage was 0.17.
UAACGGGGGGCCACAGCAGACGCGUUCACGUCGCAGCCCCUGUCGGAUUCUGGUGAACCUGCGAAUUCUGCUGUAUAUCUC showed a self-cleavage of 0.28.
Work on UAACGGGGGGCCACAGCAGAGGCGUUCACGUCGCAGCCCCUGUCAGAUUCAGGUGAAUCUGCGAAUUCUGCUGUAUAUCUC yielded a self-cleavage of 0.13.
With UAACGGGGGGCCACAGCAGAGGCGUUCACGUCGCAGCCCCUGUCAGAUUCUGGUGAAUCUGCGGACCCUGCUGUAUAUCUC the self-cleavage was 0.17.
UAACGGGGGGCCACAGCAGAGGCGUUCACGUCGCAGCCCCUGUCAGAUUCUGGUGAAUCUGCGAAUUCUGCUAUAUAUCAC showed a self-cleavage of 0.9.
With UAACGGGGGGCCACAGCAGAGGCGUUCACGUCGCAGUCCCUGUCAGAUUCUGGUGAAUCUGCGAAUUCUGCUGUAUAUCUC the self-cleavage was 0.41.
UAACGGGGGGCCACAGCAGUAGCGUUCACGUCGCAGCCCCAGUCAGAUUCUGGUGAAUCUGCGAAUUCUGCUGUAUACCUC showed a self-cleavage of 0.09.
Variant UAACGGGGGGCCACAGCAGAGGCGUUCACGUCGCAGCCCCUGUCAGAUUCUGGUGAAUCUGCGAAUUGUGCUGUAUAUCUC has a self-cleavage of 0.49.
In the case of UAACGGGGGGCCACAGCAGGAGCGUUCACGUCGCAGCCCCUGUCAGAUCCUGGUGGAUCUGCGAAUUCAGCUGUAUAUCUC, the self-cleavage is reported as 0.18.
UAACGGGGGGCCACAGCAGGAGCGUUCACGUCGCAGCCCCUGUCAGAUUCUGGUGAAUCUGCGAACUCUGCUGUAUAUCCC gave a self-cleavage of 0.07.
In the case of UAACGGGGGGCCACAGCAGAGGCGUUCACGUCGCAGCCCCUGUCAGAUUCUGGUGAAUCCGCGAAUUCCGCAGUAUAUCUC, the self-cleavage is reported as 0.33.
UAACGGGGGGCCACAGCAGAGGCGUUCACGUCGCAGCCCCUGUCAGAUUCUGGUGAAUCUGCGAAUUCUGCUGUAUAUCCC showed a self-cleavage of 0.58.
Variant UAACGGGGGGCCACAGCAGAAGCGUUCCCGCCACAGCCCCUGUCAGAUUCUGGUGAAUCUGCGGAUUCUGCUGUAUAUCUC has a self-cleavage of 0.2.
UAACGGGGGGCCACAGCAGAGGCGUUCACGUCGCAGCCCCUGUCGGAUUCUGGUGAAUCUGCGAAUUCUGCUGUAUAUCCC showed a self-cleavage of 0.3.
UAACGGGGGGCCACAGCAGUAGCGUUCACGUCGCAGCCCCUGUCUGAUUCUGGUGAAUCUGCGAAUUCGGCUGUAUAUCUC showed a self-cleavage of 0.04.
